From PubChem BioAssay AID1458 (National Center for Advancing Translational Sciences (NCATS), 2008)
Hit rate of the full screen: of about 210,000 compounds, about 5,900 (2.8%) were called active. The shares of active, inactive and inconclusive entries below differ from those in the screen. Calls follow the shape of the dose curve; as a rule, active = well fitted activation curve with a large enough effect; inconclusive = small, poorly fitted or top-dose-only effect; inactive = no such curve, though single readings can be large or run the other way. A potency beside an inconclusive call is a rough fit, not a confirmed value.

Test: qHTS Assay for Enhancers of SMN2 Splice Variant Expression; also: nearly all actives have a fitted effect of over 55% in size; as to activity change, positive = activation: % of control where 0% means no effect
Conditions: HEK293 SMN2-luciferase splicing reporter, luminescence, 30-36 h; activity change, positive = activation: at 46.1 µM (top of the series)
Method in brief: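 HEK293 cells carry an SMN2 minigene-luciferase reporter in which exon 7 inclusion puts luciferase in frame. Cells were seeded at 2000 cells/well, attached for 10-12 hours, then exposed to compounds for 30-36 hours at 37C before ONE-Glo luminescence.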
Potency is read from the fitted curve at half-maximal effect; tags tell the direction and shape of the fitted curve.

SMILES | Potency | activity change, positive = activation
Cc1nc2cc(NC(=O)Nc3cccc4ccccc34)ccc2n1C | active: 3.98 µM | –
CC1=C(C(=O)OCc2ccc(C)cc2)C(c2ccccc2F)CC(=O)N1 (stereo not given) | – | inactive: -2.72%
Cc1ccccc1OCCCCn1c(-c2ccc(Cl)cc2)nc2ccccc2c1=O | – | inactive: -11.5%
Cn1c(=O)c2c(nc(N/N=C/c3ccc(OC(=O)c4ccco4)cc3)n2Cc2ccc(F)cc2)n(C)c1=O | – | inactive: -14%
COc1ccc(/C=C/C(=O)OCC(=O)NCc2ccco2)c(OC)c1 | inconclusive: 5.62 µM [activator, single point] | –
Cc1ccc(NC(=O)Cn2c(=O)n(CCCCC(=O)NCc3ccc4c(c3)OCO4)c(=O)c3ccccc32)cc1 | – | inactive: 1.49%
CC(=O)Nc1cc(-c2nn(C)c(=O)c3ccccc23)ccc1N1CCCCC1 | – | inactive: 5.52%
COC(=O)c1[nH]c2ccccc2c1NC(=O)CN1CCC(C(N)=O)(N2CCCCC2)CC1 | inconclusive: 12.6 µM [activator, single point] | –
CCCCCCn1c(NCC)nc2c1c(=O)[nH]c(=O)n2C | inconclusive: 12.6 µM [activator, partial curve] | –
CCOc1ccc(-c2cc(C(=O)O)c3ccccc3n2)c(OCC)c1 | – | inactive: 118%
COc1ccc2nc(/C=N/NC(=O)[C@H](C)NC(=O)OC(C)(C)C)ccc2c1 | – | inconclusive: 37.1% [activator]
COc1ccc(S(=O)(=O)N[C@@H](C)C(=O)OCC(=O)Nc2cc3oc4ccccc4c3cc2OC)cc1 | inconclusive: 14.1 µM [activator, partial curve, poor fit] | –
CCOc1ccc(OCC)c(NC(=O)C2CCN(S(=O)(=O)c3cccc4nonc34)CC2)c1 | inconclusive: 14.1 µM [activator, single point] | –
COCC(=O)Nc1c(C(=O)Nc2ccc(C)cc2)oc2ccccc12 | active: 7.94 µM | –
CSc1ccc(/C=C/C(=O)c2ccc(NC(=O)C(C)C)cc2)cc1 | – | inactive: -14.3%
O=C(Cc1ccccc1)Nc1ccc(N2CCOCC2)cc1 | inconclusive: 31.6 µM [activator, single point] | –
CCOC(=O)C1CCN(Cc2cnc(NC(=O)OC)s2)CC1 | inconclusive: 10 µM [activator, single point] | –
COc1cc(CN(C(=O)c2ccc(Cl)cc2)C2CCS(=O)(=O)C2)cc(OC)c1OC (stereo not given) | – | inactive: -8.5%
CCc1cc2cc(C(=O)Nc3ccccc3F)sc2s1 | inconclusive: 35.5 µM [activator, single point] | –
CCCn1c(NC(=O)c2ccc(C)cc2)nc2ccccc21 | inconclusive: 3.16 µM [activator, partial curve] | –
